Reference: the supplement of paper PMC11417369
± gives the standard deviation of the averaged measurements. The list shows a part of the results.

These sequences were tested on PfAP2-LT AP2 domain (GST-tagged) (assay: gcPBM binding intensity (ln(normalized median fluorescence intensity)); higher = stronger DNA binding).
Procedure, shortened: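 The highest Masliner-normalised natural-log median intensity across replicate spots of either probe orientation is reported as binding intensity. GST-tagged P. falciparum DNA-binding domains expressed in E. coli were applied for 1 h to an Agilent 4 × 180k array of primer-extended double-stranded 36-bp intergenic genomic probes plus negative controls, and bound protein was detected with Alexa488 anti-GST antibody and scanned at 488 nm.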

Row | Sequence | gcPBM binding intensity (ln)
1 | ATTTATTTATATACAAGTACATAAAAAATTAACTTA [XGTACX_site6170] | 8.3 ± 0.43
2 | AAATTATAAAATAACTGTACCAATCCTTTTTTTTTA [XGTACX_site2229] | 8.33 ± 0.48
3 | TAAATTGAAATATATTGTACATTATCAACTAAGGGA [XGTACX_site1635] | 8.55 ± 0.4
4 | CTCAACATATACGTAACACACATATAAATATAAATA [CACACA_site7749] | 8.99 ± 0.44
5 | CATATATACCTATATACACACATATAGATTTATATA [CACACA_site6451] | 8.91 ± 0.43
6 | TTATTCTACATATATGCATGTGTATGATCTGTTTAT [TGCATGCA_site782] | 9.09 ± 0.38
7 | AAAATAAAAAAAATGTAAAAGGTTAAAGTGAAATAT [CACACA_negctrl_site350] | 8.92 ± 0.42
8 | ATATAAATGATATGTACACACATTTATATATATAAA [CACACA_site3475] | 9.09 ± 0.47
9 | TGATATTATCTCTTCACACACTCACATACAGACAAA [CACACA_site1246] | 8.99 ± 0.21
10 | AAAAAAAAAATATTTGAACACACGAGGATATATAAA [CACACA_site139] | 8.76 ± 0.55
11 | TATATTTAATTATTTTGTACTCATATAAAGATGATG [XGTACX_site5488] | 8.42 ± 0.51
12 | TACAGACATACATACACACATACATACAGACATACA [CACACA_site1941] | 9.43 ± 0.38
13 | CACACGCACGAACACACACACACACGCACGCACATA [CACACA_site6305] | 10.4 ± 0.13
14 | TACATATTTACTATCACACACACGATATAAATAAAT [CACACA_site6701] | 9.35 ± 0.29
15 | AATAAAATTTGCGATGCACACAGAATAGCTAATATG [CACACA_site8983] | 9.2 ± 0.33
16 | TTATTTTACTTTTATGCAACTAAAAATATTGCTATA [XGTACX_negctrl_site277] | 8.56 ± 0.5
17 | ATATTCAATTCATACACACACAATTTAAGAATGATA [CACACA_site3883] | 9.22 ± 0.41
18 | CATATAGATTTGTTCACACACACACTAAAAAAAAAA [CACACA_site7212] | 9.37 ± 0.44
19 | ACAAATGTGAGAAAGACACACATATAATAAAAAACA [CACACA_site1156] | 9.23 ± 0.44
20 | ATACATATATAATTATGTACGTATATTTTATATAAC [XGTACX_site4292] | 8.91 ± 0.41
21 | ATGAATAAAAAAGGTGGTACATATATATATATATAT [XGTACX_site7893] | 9.82 ± 0.11
22 | TGTCTTGTAAATTATTGTACTATTTAAAGTATAAAA [XGTACX_site7863] | 8.23 ± 0.33

Row | Sequence | gcPBM binding intensity (ln)
23 | AAAATAATATAAATAATATAAGTGAGCATATATATA [TGCATGCA_negctrl_site527] | 8.76 ± 0.45
24 | AAAAAGGTTATTGGTACACACATATGTATATATATA [CACACA_site552] | 9.12 ± 0.45
25 | ATATGTGTGTAGTGTTCAATTATATTGATGTGAAGG [TGCATGCA_negctrl_site462] | 9.31 ± 0.45
26 | GAACCGTGCAAATGTTGTACACTTTAAAAATATTCT [XGTACX_site4488] | 8.79 ± 0.49
27 | ATAATATATATATTAACACACATCCTTTTATGTATA [CACACA_site1203] | 8.91 ± 0.35
28 | TTATAATAATTTTATGCACACAGAAAAATACAAGGT [CACACA_site9169] | 9.2 ± 0.32
29 | TAGGAGCCTAGACACACACACAAAAAAAAAAAAAAA [CACACA_site6911] | 9.34 ± 0.64
30 | TACATATAGAAACACACACACATATATATATATATA [CACACA_site1300] | 10.1 ± 0.35
31 | AAAACGAAAATTTGGAAACCAAAGGAAAAACATAAT [GTGCAC_negctrl_site709] | 9.1 ± 0.47
32 | TATATAAGAATTTTTACACACATGAAAATGTAGATA [CACACA_site3735] | 8.74 ± 0.37
33 | TATACATACTCACCCACACACAAAAAAAAAAAAAAA [CACACA_site862] | 9.28 ± 0.47
34 | TATTTAATGTGATACTTATATTATTTTATGATTAAA [GTGCAC_negctrl_site25] | 8.38 ± 0.32
35 | AGCTCTTGTCATTTTGCACACACACCGGTATAGGTT [CACACA_site5654] | 9.93 ± 0.36
36 | TATATATACAGACACATACACACAAATAAAAAAACA [CACACA_site3413] | 9.39 ± 0.35
37 | AGAAGGTAAAAACACACACACACATACAAAAAAAAA [CACACA_site3767] | 10 ± 0.5
38 | ATATTTAAAAAAGAGTGTACTCATCTCTTTTAAAAA [XGTACX_site1160] | 8.29 ± 0.4
39 | GTGTATTTATGTTATACACACAAAAATATTTTGTAT [CACACA_site4305] | 9.01 ± 0.33
40 | AATGTAGGTTTATTTACACACAAATATAGATATATA [CACACA_site6825] | 8.96 ± 0.4
41 | ATGTTGCTCATATGAGTGCACGTTTCATTTCAGTTT [GTGCAC_site9865] | 9.01 ± 0.45
42 | CTATTTCGTATATATAGTACATATTATAACATACTA [XGTACX_site978] | 8.75 ± 0.42
43 | AATTTATATAATTTTGTGCACAATATTCATGTATAT | 9.12 ± 0.46
44 | ATTTTATTAATTTGGTGTACTTAATTTATATTTTTC [XGTACX_site4947] | 8.83 ± 0.47

Row | Sequence | gcPBM binding intensity (ln)
45 | AAAAAAAAAAAATAATAAATAAATAAAAATAAATGA [CACACA_negctrl_site1623] | 8.47 ± 0.6
46 | CCTCCATTAGATACTTGTACATAAAAGTTTTGATTG [XGTACX_site7428] | 8.61 ± 0.42
47 | AATCATAAAATCATATGTACACATTTTTCCTATGAT [XGTACX_site8799] | 8.96 ± 0.33
48 | AGACTTTGTACAAACACACACATGAACACAATATTA [CACACA_site1360] | 9.44 ± 0.42
49 | TATTTCACAAACCTTACATGCGGTTTATTTATATAT [TGCATGCA_site123] | 9.06 ± 0.45
50 | TTTATTAAATATATATGTACATATCAAAATGTATAA [XGTACX_site3181] | 8.46 ± 0.43
51 | TTTTTTTTCTATTGAGCACACATATCACGATTAGTA [CACACA_site7992] | 8.86 ± 0.48
52 | TTTTTGAATGTTTGCACACAAATCTCATAATTTTAG [CACACA_site357] | 8.88 ± 0.4
53 | TAGTTACATAAAATATGTACGTATAATTTTTTTATT [XGTACX_site3847] | 8.56 ± 0.42
54 | ATAATTTATATCATTACACACATTTTTTATATTTTT [CACACA_site3450] | 8.98 ± 0.38
55 | TTTAGTTCATACTATGCACACTACGTATATTTTTAA [CACACA_site5484] | 8.95 ± 0.39
56 | TATTTTCTCTTAAAAAGTACTCATATATACATTTAT [XGTACX_site7748] | 8.57 ± 0.53
57 | ATAACATACATAACAACACACAATATTTATAGGTAT [CACACA_site6243] | 9.35 ± 0.38
58 | CGTTATATATTTTATAGTACTTTTTGTAAATTTTTT [XGTACX_site7682] | 8.62 ± 0.43
59 | ATTAATAAGAAGAAAAGTACAAAACAAAAAGATATA [XGTACX_site7473] | 8.87 ± 0.51
60 | TTAATTTATGTTAATGGTACGTAAATGCATTTATTT [XGTACX_site3002] | 8.81 ± 0.41
61 | ATTTAACCAAATAATATATTTAAAAAATAGTCACAT [CACACA_negctrl_site274] | 8.61 ± 0.47
62 | TATAATATATGAAAAAGTACAAATATTTCGATGGTC [XGTACX_site129] | 8.82 ± 0.38
63 | TTTTATAATTTGAGAACATGCAACATAAATATAAAG [TGCATGCA_site965] | 8.48 ± 0.45
64 | AACATTTTAAAATAATGTACTTGAAAAAAAAACTAC [XGTACX_site8894] | 8.65 ± 0.51
65 | TGTTCTAATATTTGTTGTACGTTTACGTTTCTCTCT [XGTACX_site18] | 8.93 ± 0.44
66 | TATTTAAGAGTATGAACACACATCATACCCATATAA [CACACA_site5911] | 8.81 ± 0.43

Row | Sequence | gcPBM binding intensity (ln)
67 | CATATAAATAAATATACATGCATACATACATATATA [TGCATGCA_site713] | 8.79 ± 0.38
68 | AACATCTTATCATCATGTACGAAGCAGTTTTATAAG [XGTACX_site2490] | 8.73 ± 0.32
69 | TATAATAAATATACTGGTACACAAATATATATATTT [XGTACX_site7741] | 8.78 ± 0.47
70 | ATATTATATTTACATAGTACACTATATGTATATATA [XGTACX_site2101] | 8.88 ± 0.39
71 | TGTAATTTTTTACGTTGTACATATATTAACAATATA [XGTACX_site3991] | 8.53 ± 0.39
72 | AAAAAAAAAAAAAAAAAAACTAATATAATAAAAATA [TGCATGCA_negctrl_site150] | 8.38 ± 0.39
73 | AAAAAAATAATATAATATTAAATCTTAGTTAATAAA [GTGCAC_negctrl_site658] | 8.38 ± 0.49
74 | TTTTTTTTTTTTTTTTCTTTTTTTTTTTTAAATAAG [XGTACX_negctrl_site418] | 7.99 ± 0.3
75 | TTTTTTTTTTTTTACACACCCAAATCACATACATAT [CACACA_site6089] | 8.99 ± 0.54
76 | ATTTTTATATTTAATACACACATAAAATCATACCAT [CACACA_site23] | 8.85 ± 0.39
77 | ATGTCAGGGAAAAAAACACACAAGAGTATGATATGT [CACACA_site2180] | 9.16 ± 0.45
78 | TATATATTTATATATTGTACACTCTTATGTAGTGTA [XGTACX_site210] | 8.74 ± 0.4
79 | TAAAAAAGAAAAAGAGCACACAAAAATATTTAACCT [CACACA_site8885] | 9.02 ± 0.47
80 | TTACATATTTTCATTTGTACATATTCATTTTTTTTC [XGTACX_site6988] | 8.84 ± 0.44
81 | AAATAACCCACGTGCATGCACTTCAATAACTGAACT | 9.15 ± 0.33
82 | ATATATATATAATGTTGTACGTTTTATTCTCCCATT [XGTACX_site8071] | 9.17 ± 0.26
83 | TTTATCATGAACAGAAGTACATTTATATCAATGTCT [XGTACX_site6470] | 8.65 ± 0.32
84 | ATATATATATATTTTACACACAATGGAGAAAAAAAT [CACACA_site644] | 9.04 ± 0.42
85 | TGGTATATACGACACACACACATATGTATAAATATA [CACACA_site6561] | 9.66 ± 0.4
86 | TATTTTTAAAAGTTAACAGAAAAAATATAAATAAAT [GTGCAC_negctrl_site295] | 8.46 ± 0.41
87 | TACCATAATCAATGCACACATAACAAAATATTATTA [CACACA_site2722] | 9.03 ± 0.42
88 | TGTAATAAAATAATTAGTACACATATATGTATATTT [XGTACX_site5896] | 8.72 ± 0.33
